Data taken from ChEMBL document CHEMBL4888484, “Replenishing the malaria drug discovery pipeline: Screening and hit evaluation of the MMV Hit Generation Library 1 (HGL1) against asexual blood stage Plasmodium falciparum ,using a nano luciferase reporter read-out” (2022).
In all, about 150,000 compounds went through this assay and about 540 (0.36%) showed an effect of 50% or more. Some of the results follow.

Tested on: Plasmodium falciparum
Experiment: Primary screen in NF54 nanoGlo assay, in single point, at 2uM, 72h; a lower Z score goes with more inhibition
Assay type: functional, Erythrocyte
Conditions: timepoint 72 hour

**Q.** For `N#Cc1ccc(C(=O)N2CCCN(C(=O)c3cccnc3)CCC(=O)NCC2)cc1`, which “% Inhibition” value is on record?
**A.** Its value is -16%.

**Q.** And the Z score?
**A.** Its Z score is 1.82.

**Q.** Which results are given for `CC(C)N(C)c1ccc(Br)cn1`?
**A.** % Inhibition: -11%; Z score: 1.44

**Q.** Which results are given for `O=C1c2ccccc2C(=O)N1Cc1cc(-c2ccco2)on1`?
**A.** % Inhibition: -11%; Z score: 1.84

**Q.** Which “% Inhibition” value does the source give for `Cn1cc(C(N)=O)cc1C(=O)Oc1ccc(F)c(C(F)(F)F)c1` here?
**A.** The value was 6%.

**Q.** What about the Z score of the same molecule?
**A.** The Z score was -0.59.

**Q.** For `O=S(=O)(c1c(Cl)cccc1Cl)N1CCC[C@H](c2nc3ccccc3s2)C1`, which “% Inhibition” value is on record?
**A.** Its value is -5%.

**Q.** What about the Z score of the same molecule?
**A.** The Z score was 0.54.

**Q.** How did the “% Inhibition” value turn out when `Cc1cnc(N[C@@H](C)CCn2cccn2)nc1N(C)C` was run?
**A.** The value was 7%.

**Q.** What about the Z score of the same molecule?
**A.** Its Z score is -1.26.

**Q.** With `Cc1ccc(C(=O)N[C@H]2CC(=O)N(c3ccccc3)C2)c(=O)[nH]1` as the molecule, how does the “% Inhibition” value read?
**A.** The value was 6%.

**Q.** What about the Z score of the same molecule?
**A.** The Z score was -0.76.

**Q.** Which “% Inhibition” value does the source give for `CCc1cc(C(=O)NC[C@@]2(C)CCC(=O)N2)ccc1O` here?
**A.** The value was -15%.

**Q.** And the Z score?
**A.** Its Z score is 1.96.

**Q.** What does the source list for `Cc1ccc2nc(C[C@H]3CN(C4CCOCC4)CC[C@H]3CC(=O)O)[nH]c2c1`?
**A.** % Inhibition: 3%; Z score: -0.33

**Q.** `C[C@H](NCc1ccccc1F)c1noc(Cc2ccccc2)n1` was tested. Which “% Inhibition” value did it give?
**A.** Its value is -8%.

**Q.** What about the Z score of the same molecule?
**A.** The Z score was 1.3.

**Q.** With `CC1CCN(c2onc(-c3ccccc3)c2CN(Cc2ccccc2)C(=O)c2cccs2)CC1` as the molecule, how does the “% Inhibition” value read?
**A.** The value was -3%.

**Q.** What about the Z score of the same molecule?
**A.** Its Z score is 0.28.

**Q.** What does the source list for `Cc1cccc(C)c1NC(=O)N1CCCc2n[nH]cc21`?
**A.** % Inhibition: 2%; Z score: -0.28

**Q.** With `COc1ccc(OCC2CCN([C@@H](C)C(=O)Nc3nncs3)CC2)cc1` as the molecule, how does the “% Inhibition” value read?
**A.** The value was -6%.

**Q.** And the Z score?
**A.** Its Z score is 1.2.

**Q.** With `O=C(Nc1cccc2cccnc12)N1CCOCC1CC(O)c1cccs1` (stereo not drawn) as the molecule, how does the “% Inhibition” value read?
**A.** Its value is 32%.

**Q.** And the Z score?
**A.** Its Z score is -4.32.

**Q.** Which results are given for `CS(=O)(=O)N1CCC[C@@H]1CNC(=O)CC1CCC2CC12` (stereo partly drawn)?
**A.** % Inhibition: -1%; Z score: 0.12

**Q.** `O=C(Cn1c(=O)[nH]c2c(-c3ccccc3F)c[nH]c2c1=O)NC1CCCCCC1` was tested. Which “% Inhibition” value did it give?
**A.** Its value is 10%.

**Q.** And the Z score?
**A.** Its Z score is -1.2.

**Q.** `CCCCN(C(=O)NC(=O)Nc1ccccc1Br)S(C)(=O)=O` was tested. Which “% Inhibition” value did it give?
**A.** Its value is -10%.

**Q.** And the Z score?
**A.** Its Z score is 1.56.

**Q.** `CCN(CC)CCN(C)C(=O)c1cnn(-c2nccc(-c3cccs3)n2)c1C` was tested. Which “% Inhibition” value did it give?
**A.** The value was 7%.

**Q.** What about the Z score of the same molecule?
**A.** The Z score was -0.95.

**Q.** What does the source list for `CCOC(=O)c1nn(Cc2ccncc2)c2c1CN(C(=O)CCc1ccc3c(c1)OCO3)CC2`?
**A.** % Inhibition: -5%; Z score: 0.71

**Q.** `O=C(Cn1cc(C2CC2)nn1)Nc1cccc(Nc2ccccc2)c1` was tested. Which “% Inhibition” value did it give?
**A.** The value was -19%.

**Q.** And the Z score?
**A.** The Z score was 2.33.

**Q.** With `CC(C)c1ccc(NC(=O)[C@H]2CCCN(c3cnc4ccccc4n3)C2)cc1` as the molecule, how does the “% Inhibition” value read?
**A.** The value was -17%.

**Q.** And the Z score?
**A.** Its Z score is 1.56.

**Q.** How did the “% Inhibition” value turn out when `Fc1ccccc1-c1c[nH]c([C@@H]2CCCN2Cc2cccnc2)n1` was run?
**A.** The value was -2%.

**Q.** What about the Z score of the same molecule?
**A.** The Z score was 0.21.

**Q.** How did the “% Inhibition” value turn out when `Cc1nn(C)c(C)c1[C@H](C)NS(=O)(=O)CC1CCCC1` was run?
**A.** The value was -4%.

**Q.** What about the Z score of the same molecule?
**A.** Its Z score is 0.8.

**Q.** `O=C(c1onc2c1CCCC2)N1CCn2c(Cc3cccc(F)c3)nnc2C1` was tested. Which “% Inhibition” value did it give?
**A.** Its value is 4%.

**Q.** And the Z score?
**A.** Its Z score is -0.71.

**Q.** What does the source list for `Cc1sc(NC(=O)c2ccccc2Cl)nc1-c1ccc2c(c1)NC(=O)[C@H](C)O2`?
**A.** % Inhibition: 36%; Z score: -1.31

**Q.** Which results are given for `CCCCS(=O)(=O)N1CCC(O)(Cc2nc(C)cs2)CC1`?
**A.** % Inhibition: -14%; Z score: 1.88

**Q.** What does the source list for `Cc1cc(C)c2c(C)c(C(=O)Nc3cccc(-c4nc5ccccc5s4)c3)oc2c1`?
**A.** % Inhibition: 16%; Z score: -1.84

**Q.** For `Fc1ccc(N2CCC(NC[C@@H](c3cccnc3)N3CCCCC3)CC2)cc1F`, which “% Inhibition” value is on record?
**A.** The value was 1%.

**Q.** And the Z score?
**A.** The Z score was -0.19.

**Q.** What does the source list for `CCc1c(C(=O)N2CC[C@H](c3sccc3C)[C@@H](O)C2)csc1C`?
**A.** % Inhibition: 1%; Z score: -0.18

**Q.** With `COc1cccc(CC(=O)Nc2c(C(=O)N3CCCCCC3)oc3ccccc23)c1` as the molecule, how does the “% Inhibition” value read?
**A.** The value was -19%.

**Q.** And the Z score?
**A.** Its Z score is 2.72.

**Q.** Which results are given for `Cc1cccc(N2CCN(S(=O)(=O)c3cnc(C)s3)CC2)c1`?
**A.** % Inhibition: -21%; Z score: 3.58

**Q.** `O=C1CCC(C(=O)N(Cc2ccccc2)Cc2nccs2)=NN1` was tested. Which “% Inhibition” value did it give?
**A.** The value was -3%.

**Q.** What about the Z score of the same molecule?
**A.** Its Z score is 0.52.

**Q.** Which “% Inhibition” value does the source give for `COc1ccc(C(CN2CCN(C)CC2)NCC2CC=CCC2)cc1` (stereo not drawn) here?
**A.** The value was 13%.

**Q.** And the Z score?
**A.** Its Z score is -1.92.

**Q.** What does the source list for `COc1cc2c(cc1C(=O)N1CC(C)(C)[C@@](C)(O)C1)CCC2`?
**A.** % Inhibition: -4%; Z score: 0.69

**Q.** For `CCc1ccccc1-c1nccn1CCN(C)C`, which “% Inhibition” value is on record?
**A.** The value was -10%.

**Q.** And the Z score?
**A.** The Z score was 1.67.

**Q.** Which “% Inhibition” value does the source give for `CC(C)CC(C#N)CN1CCC(C(N)=O)C1` (stereo not drawn) here?
**A.** Its value is 14%.

**Q.** And the Z score?
**A.** The Z score was -1.63.

**Q.** With `C[C@@H](c1nc(-c2cccnn2)no1)N1CCCC1=O` as the molecule, how does the “% Inhibition” value read?
**A.** The value was -8%.

**Q.** What about the Z score of the same molecule?
**A.** The Z score was 0.73.

**Q.** For `Nc1ncc(CN2CCCC23CCCCC3)s1`, which “% Inhibition” value is on record?
**A.** Its value is -11%.

**Q.** What about the Z score of the same molecule?
**A.** The Z score was 1.09.

**Q.** How did the “% Inhibition” value turn out when `O=C(Nc1ccc(S(=O)(=O)Nc2nccs2)cc1)c1ccc2c(c1)OCO2` was run?
**A.** The value was -5%.

**Q.** What about the Z score of the same molecule?
**A.** Its Z score is 0.87.

**Q.** Which results are given for `CCC1(CNC(=O)NCCNC(C)=O)CCCC1`?
**A.** % Inhibition: -4%; Z score: 0.5

**Q.** Which “% Inhibition” value does the source give for `CCNC(=O)N(Cc1c(CC)nn(-c2ccc(F)cc2)c1Oc1ccccc1)C[C@H]1CCCO1` here?
**A.** The value was -12%.

**Q.** And the Z score?
**A.** Its Z score is 1.04.

**Q.** Which “% Inhibition” value does the source give for `Cc1ccc(CNC(=O)c2ccc(C)nc2C2CCN(Cc3cccs3)CC2)cc1` here?
**A.** The value was -15%.

**Q.** What about the Z score of the same molecule?
**A.** The Z score was 1.65.

**Q.** `COc1ccc(CCn2c(N3CCOCC3)nc3c2c(=O)n(C)c(=O)n3C)cc1` was tested. Which “% Inhibition” value did it give?
**A.** The value was 29%.

**Q.** And the Z score?
**A.** The Z score was -3.88.

**Q.** `O=C(Nc1cc2ccc(Br)cn2n1)C1CC12CCOC2` (stereo not drawn) was tested. Which “% Inhibition” value did it give?
**A.** The value was -11%.

**Q.** What about the Z score of the same molecule?
**A.** Its Z score is 1.25.

**Q.** What does the source list for `Cn1cncc1CNC[C@H]1CCCN1CC1CCCCC1`?
**A.** % Inhibition: 3%; Z score: -0.25

**Q.** Which results are given for `Cc1ccc2c(c1)CN(C(=O)c1cccc(OC(C)C)n1)CCO2`?
**A.** % Inhibition: -8%; Z score: 1.12

**Q.** For `Cc1ccc(N2C(=O)c3cc(-c4ccco4)nn3C[C@@]2(C)C(=O)NC2CCCCCCC2)cc1C`, which “% Inhibition” value is on record?
**A.** Its value is -13%.

**Q.** What about the Z score of the same molecule?
**A.** Its Z score is 2.41.

**Q.** With `CCCc1cc(-c2nc(CCOC)no2)n(C)n1` as the molecule, how does the “% Inhibition” value read?
**A.** The value was -8%.

**Q.** And the Z score?
**A.** The Z score was 1.43.

**Q.** How did the “% Inhibition” value turn out when `Cc1c(CCC(=O)N2CCCO[C@H](C(C)C)C2)cnn1C` was run?
**A.** Its value is 2%.

**Q.** And the Z score?
**A.** Its Z score is -0.31.

**Q.** With `C[C@H](OC(=O)c1ccc2c(c1)CCC2)C(=O)Nc1ccc(S(N)(=O)=O)cc1` as the molecule, how does the “% Inhibition” value read?
**A.** Its value is -8%.

**Q.** What about the Z score of the same molecule?
**A.** Its Z score is 1.42.

**Q.** What does the source list for `CC(C(=O)NC1CCCC1(C)CO)c1ccc(Cl)s1` (stereo not drawn)?
**A.** % Inhibition: -6%; Z score: 0.69

**Q.** Which “% Inhibition” value does the source give for `Cc1cc(C)cc(N2C(=O)CN(S(=O)(=O)c3ccccc3)C[C@@]2(C)C(=O)NC2CCCCCC2)c1` here?
**A.** The value was -14%.

**Q.** And the Z score?
**A.** Its Z score is 1.73.

**Q.** With `CC(C)Oc1cnccc1NC(=O)N1CCOCC[C@@H]1C` as the molecule, how does the “% Inhibition” value read?
**A.** The value was -3%.

**Q.** What about the Z score of the same molecule?
**A.** Its Z score is 0.57.

**Q.** `C=CCC[C@@H](CN1CCOCC1)Oc1cc(C(F)(F)F)ccn1` was tested. Which “% Inhibition” value did it give?
**A.** Its value is 2%.

**Q.** And the Z score?
**A.** The Z score was -0.26.
